Measured values: patent publication US20250213533A1 (GH RESEARCH IRELAND LIMITED, priority 2022, published 2025)

System: patients with treatment-resistant major depressive disorder (TRD)
Assay: Phase 1/2 clinical trial of inhaled 5-MeO-DMT in TRD patients (Part A single dose 12 or 18 mg; Part B IDR 6/12/18 mg)
Settings: for patients with at least one ADR: Part A, n=4
[1] = IDR n=8, 2 hours after last dose
[2] = IDR n=8, 3 hours after last dose

SMILES: COc1ccc2[nH]cc(CCN(C)C)c2c1 [5-MeO-DMT]
- MADRS Concentration Difficulties improvement, sum of patients (12 mg n=4, 2 hours after dose): 9
- MADRS Concentration Difficulties score, sum of patients (12 mg n=4, 2 hours after dose): 7
- MADRS Inability to Feel improvement, sum of patients (12 mg n=4, 2 hours after dose): 7
- MADRS Inability to Feel score, sum of patients (12 mg n=4, 2 hours after dose): 9
- MADRS Inner Tension score, sum of patients (12 mg n=4, 2 hours after dose): 2
- MADRS Lassitude improvement, sum of patients (12 mg n=4, 2 hours after dose): 6
- MADRS Lassitude score, sum of patients (12 mg n=4, 2 hours after dose): 10
- MADRS Pessimistic Thoughts improvement, sum of patients (12 mg n=4, 2 hours after dose): 8
- MADRS Pessimistic Thoughts score, sum of patients (12 mg n=4, 2 hours after dose): 8
- MADRS Suicidal Thoughts improvement, sum of patients (12 mg n=4, 2 hours after dose): 5
- MADRS Suicidal Thoughts score, sum of patients (12 mg n=4, 2 hours after dose): 3
- BPRS Blunted Affect improvement, sum of patients (12 mg n=4, 3 hours after dose): 3
- BPRS Blunted Affect score, sum of patients (12 mg n=4, 3 hours after dose): 8
- BPRS Emotional Withdrawal improvement, sum of patients (12 mg n=4, 3 hours after dose): 2
- BPRS Guilt Feelings improvement, sum of patients (12 mg n=4, 3 hours after dose): 9
- BPRS Guilt Feelings score, sum of patients (12 mg n=4, 3 hours after dose): 9
- BPRS Tension improvement, sum of patients (12 mg n=4, 3 hours after dose): 5
- BPRS Tension score, sum of patients (12 mg n=4, 3 hours after dose): 9
- MADRS Suicidal Thoughts score, sum of patients (12 mg n=4, baseline): 8
- BPRS Anxiety score, sum of patients (12 mg n=4, day 1): 6
- BPRS Blunted Affect improvement, sum of patients (12 mg n=4, day 1): 5
- BPRS Blunted Affect score, sum of patients (12 mg n=4, day 1): 6
- BPRS Emotional Withdrawal improvement, sum of patients (12 mg n=4, day 1): 5
- BPRS Emotional Withdrawal score, sum of patients (12 mg n=4, day 1): 8
- BPRS Guilt Feelings score, sum of patients (12 mg n=4, day 1): 5
- BPRS Tension improvement, sum of patients (12 mg n=4, day 1): 8
- BPRS Tension score, sum of patients (12 mg n=4, day 1): 6
- MADRS Concentration Difficulties score, sum of patients (12 mg n=4, day 1): 2
- MADRS Inability to Feel score, sum of patients (12 mg n=4, day 1): 1
- MADRS Inner Tension improvement, sum of patients (12 mg n=4, day 1): 10
- MADRS Inner Tension score, sum of patients (12 mg n=4, day 1): 3
- MADRS Lassitude score, sum of patients (12 mg n=4, day 1): 0
- MADRS Pessimistic Thoughts improvement, sum of patients (12 mg n=4, day 1): 9
- MADRS Pessimistic Thoughts score, sum of patients (12 mg n=4, day 1): 7
- MADRS Reduced Sleep improvement, sum of patients (12 mg n=4, day 1): 2
- MADRS Reduced Sleep score, sum of patients (12 mg n=4, day 1): 10
- MADRS Suicidal Thoughts improvement, sum of patients (12 mg n=4, day 1): 3
- MADRS Suicidal Thoughts score, sum of patients (12 mg n=4, day 1): 5
- BPRS Anxiety score, sum of patients (12 mg n=4, day 7): 6
- BPRS Blunted Affect improvement, sum of patients (12 mg n=4, day 7): 6
- BPRS Blunted Affect score, sum of patients (12 mg n=4, day 7): 5
- BPRS Emotional Withdrawal improvement, sum of patients (12 mg n=4, day 7): 7
- BPRS Emotional Withdrawal score, sum of patients (12 mg n=4, day 7): 6
- BPRS Guilt Feelings score, sum of patients (12 mg n=4, day 7): 5
- BPRS Tension improvement, sum of patients (12 mg n=4, day 7): 8
- BPRS Tension score, sum of patients (12 mg n=4, day 7): 6
- MADRS Concentration Difficulties score, sum of patients (12 mg n=4, day 7): 3
- MADRS Inability to Feel score, sum of patients (12 mg n=4, day 7): 1
- MADRS Inner Tension improvement, sum of patients (12 mg n=4, day 7): 8
- MADRS Inner Tension score, sum of patients (12 mg n=4, day 7): 5
- MADRS Lassitude score, sum of patients (12 mg n=4, day 7): 3
- MADRS Pessimistic Thoughts improvement, sum of patients (12 mg n=4, day 7): 8
- MADRS Pessimistic Thoughts score, sum of patients (12 mg n=4, day 7): 8
- MADRS Reduced Sleep improvement, sum of patients (12 mg n=4, day 7): 6
- MADRS Reduced Sleep score, sum of patients (12 mg n=4, day 7): 6
- MADRS Suicidal Thoughts improvement, sum of patients (12 mg n=4, day 7): 1
- MADRS Suicidal Thoughts score, sum of patients (12 mg n=4, day 7): 7
- MADRS Lassitude score, sum of patients [1]: 10
- MADRS Pessimistic Thoughts score, sum of patients [1]: 7
- MADRS Suicidal Thoughts improvement, sum of patients [1]: 8
- MADRS Suicidal Thoughts score, sum of patients [1]: 3
- BPRS Blunted Affect improvement, sum of patients [2]: 4
- BPRS Emotional Withdrawal improvement, sum of patients [2]: 5
- BPRS Emotional Withdrawal score, sum of patients [2]: 8
- BPRS Guilt Feelings improvement, sum of patients [2]: 20
- BPRS Tension improvement, sum of patients [2]: 5
- BPRS Anxiety score, sum of patients (IDR n=8, baseline): 37
- MADRS Concentration Difficulties score, sum of patients (IDR n=8, baseline): 30
- MADRS Inability to Feel score, sum of patients (IDR n=8, baseline): 36
- MADRS Inner Tension score, sum of patients (IDR n=8, baseline): 26
- MADRS Lassitude score, sum of patients (IDR n=8, baseline): 27
- MADRS Pessimistic Thoughts score, sum of patients (IDR n=8, baseline): 28
- BPRS Blunted Affect improvement, sum of patients (IDR n=8, day 1): 7
- BPRS Blunted Affect score, sum of patients (IDR n=8, day 1): 8
- BPRS Emotional Withdrawal improvement, sum of patients (IDR n=8, day 1): 5
- BPRS Emotional Withdrawal score, sum of patients (IDR n=8, day 1): 8
- BPRS Tension improvement, sum of patients (IDR n=8, day 1): 5
- MADRS Concentration Difficulties score, sum of patients (IDR n=8, day 1): 1
- MADRS Inability to Feel score, sum of patients (IDR n=8, day 1): 2
- MADRS Inner Tension improvement, sum of patients (IDR n=8, day 1): 20
- MADRS Inner Tension score, sum of patients (IDR n=8, day 1): 6
- MADRS Lassitude score, sum of patients (IDR n=8, day 1): 5
- MADRS Pessimistic Thoughts score, sum of patients (IDR n=8, day 1): 4
- MADRS Suicidal Thoughts improvement, sum of patients (IDR n=8, day 1): 10
- MADRS Suicidal Thoughts score, sum of patients (IDR n=8, day 1): 1
- BPRS Anxiety improvement, sum of patients (IDR n=8, day 7): 20
- BPRS Blunted Affect improvement, sum of patients (IDR n=8, day 7): 7
- BPRS Blunted Affect score, sum of patients (IDR n=8, day 7): 8
- BPRS Emotional Withdrawal improvement, sum of patients (IDR n=8, day 7): 5
- BPRS Emotional Withdrawal score, sum of patients (IDR n=8, day 7): 8
- BPRS Guilt Feelings score, sum of patients (IDR n=8, day 7): 10
- BPRS Tension improvement, sum of patients (IDR n=8, day 7): 6
- BPRS Tension score, sum of patients (IDR n=8, day 7): 10
- MADRS Concentration Difficulties score, sum of patients (IDR n=8, day 7): 9
- MADRS Inability to Feel improvement, sum of patients (IDR n=8, day 7): 30
- MADRS Inability to Feel score, sum of patients (IDR n=8, day 7): 6
- MADRS Lassitude score, sum of patients (IDR n=8, day 7): 3
- MADRS Pessimistic Thoughts score, sum of patients (IDR n=8, day 7): 3
- MADRS Reduced Sleep score, sum of patients (IDR n=8, day 7): 9
- MADRS Suicidal Thoughts improvement, sum of patients (IDR n=8, day 7): 8
- MADRS Suicidal Thoughts score, sum of patients (IDR n=8, day 7): 3
- patients with at least one ADR (12 mg): 3 of 4
- patients with at least one ADR (18 mg): 3 of 4
- induction of hypomania (TRD patients): no evidence of hypomania induction
